# The source gives no read counts; variants with many changes may rest on few reads.
# B1: LINE1-mini (parent)
# chain: GGCAGAGCUCAACACAGCGUGGCAAAGUGGCUGUGGCUAGACUGCC
# Variants of: B1
# Assay: self-cleavage, relative activity (ratio to wild type); higher = more cleavage; in vitro, sequencing; the parent is a self-cleaving ribozyme
row,Variant,self-cleavage
1,G21U A39U G40C,0.14
2,U34G A39G G40U,0.17
3,U9G C18U G29A C37G U38G,0.01
4,G17C G35A C42U,0.1
5,C15A G30C C31G C42U,0.09
6,A12G A14C C18U U43A,0.05
7,C3A U20C G22U A26G A39U C42U,0.09
8,G2U C8G C10A G44A C45A,0
9,G17A G21U G40U,0.01
10,C3A U9A C15A G27C G33A,1.56
11,C10U C18A G29A,0.2
12,A11C G29C G30U U32G,0.01
13,A14U A26U G29U C37U G40U,0.11
14,A25C A39C G40U G44U,0.02
15,A11U A26C G29U,0.09
16,U9C C15A C18G C23U,0.03
17,C8U A11G C18A U20A C23A,0.02
18,C8A C18G U28G U43G C46A,0.17
19,C8U C31U G33U U38A,0.1
20,G2A A12C G21U,0.04
21,U20A C31U U32G,0.11
22,G2A C8U C23A U34G C37A C46A,0.13
23,C15A A25U C45G,0
24,A6C A26U C46U,0.31
25,A12C G21U C42A,0.01

row,Variant,self-cleavage
1,C3A A6U U28A,0.21
2,C8A A12C G30A G40U A41G,0.02
3,A14U A16G C42A,0.06
4,G7U C8A G21A U32C,0.15
5,G22A G33U C45U,0.39
6,C15G G30C U43A,0.01
7,G7A C18G U38A,0.02
8,C18G C23A U32A,0.04
9,C8A A11U U32C,0.02
10,C3U C10A A24C A26U U34A,0.03
11,A14U C23G G27C U34A A41G,0.1
12,U28A G29A U32C G40A,0.11
13,G7C U28A C31A G36A C37U G40U,0.01
14,G5A G27U G40A,0.04
15,C13A C15A G17C,0.01
16,C18A A39C C45U,0.05
17,A14C G40A C42A,0.1
18,C15G A26U G29C U34A G40C G44C,0.01
19,G1U A24U G40U C46U,0.07
20,C23A U43A C46U,0.13
21,C15A G21U G36U,0.04
22,C10A U20G C23G,0.02
23,G27C G33U C46G,0.19
24,G21U A24G G30C,2.76
25,G29A C31A G36U U38C,0.06

row,Variant,self-cleavage
1,C13U A24C G33U,0.07
2,G7U C10A C15A,0.01
3,C8U A24U C31U C46U,0.06
4,G1A U20A C23A U28C U43C,0.05
5,G5U A16U G21U C31A,0.03
6,G2A C10A C23A C37A,0.01
7,C8A C10A A16U C46U,0.02
8,G2U G22C U28C G29C G36C,0
9,A4C C8G C46G,0.03
10,G1C G2A A14G A24U,0.03
11,G5U C15U G19C U34C A41C,0.02
12,A14G A24U A25G C42A,0.17
13,G17C C31A G40A,0.04
14,C10A G19U U34G G40A,0.01
15,G5C C13U G22C,0.04
16,A16G U32A U34A,0.01
17,A16U G17A A39U C46A,0.01
18,C8G C23U G36A C46A,0.06
19,U28C G29U G40A A41C,0.04
20,G19A G21U U38A,0.22
21,G17U C18U G19A,0.07
22,A11G G21C G29A U32G A41G,0.01
23,G7A C8G U9G,0.04
24,C18U G19C C42G,0.08
25,G7U G33A C46A,0.33

row,Variant,self-cleavage
1,C3A G7A A12G C45G,0.26
2,A12U G19U G33A G40A,0.01
3,G5A A14U G29U,0.08
4,C10A G36C A39G G40C,0
5,A4G C8A U20G C23U G27C C37G C45U,0
6,C8G A26U G30C A39G U43C,0.01
7,A6C G27C G30U C37U,0
8,A14U G29A U43C,0.17
9,C8A C15A G35C A41U,0.13
10,A4U G33C G35U,0.06
11,C10A A11U C15G,0.01
12,C15A C23U G30U,0.1
13,C8A A11C C18A U32G G33C G44A,0.01
14,U9G G36U G40A C46U,0.03
15,G5U C15A G17U,0.04
16,A11G G22U U38G A39C,0.01
17,G1C A16G G21A G29A U34A,0.01
18,G5A G19A G27A G35U G40C,0.09
19,A12U A14U G17U,0.05
20,C3U G5U U34G,0.01
21,A12C U20G C45G,0.06
22,A12C G30U G40A,0.01
23,A14G C15U G19C A26G A41U,0.05
24,G21C C23G A26G,0.29
25,A6C A11U A16U C37A,0.02

row,Variant,self-cleavage
1,C8G U9G A14C C31A G40A,0.02
2,A4G G21U G29U,1.37
3,G5U U32G U34G C42A,0.01
4,A4G C10A U20A,0.06
5,C10A A14C C18A G29A G36C,0.03
6,G27A G29U C31U A39G,0.01
7,A4G G21C G22C C42U,0.04
8,C8G G21U G35A G44C,0.03
9,G1C U38G G40C C46U,0
10,C31G G35U C46G,0
11,C3G G30U C37A,0.93
12,G7U C13U U20G,0.03
13,A6C A16G G22U A26C G29U C46G,0.07
14,C10U G19A A24G G27C,0.2
15,G2C U20G G21A,0.56
16,C8G A14U G17U G35C U38G G44U,0.03
17,G22U C37A G44A,0.12
18,A16U G17U A24U G29C G30U,0.13
19,C3A G27U G33U,0.14
20,G35C C42U C45U,0.07
21,U9C A14G G17U C18A U20C G22U,0.01
22,C13U U20A G30C G44C,0.06

# — the RNAGym collection of RNA variant scans (doi:10.7554/elife.90254)
